The whole screen tested about 310,000 compounds, of which about 2,200 (0.71%) showed an effect of 50% or more. The effect is printed as a negative number. Some of the results follow.
Biological target: human ether-à-go-go-related gene (hERG) potassium channel (human, UniProt Q12809)
Assay: primary screen, population patch clamp on CHO cells stably expressing hERG

human ether-à-go-go-related gene (hERG) potassium channel, sequence (Q12809 whole entry, looked up): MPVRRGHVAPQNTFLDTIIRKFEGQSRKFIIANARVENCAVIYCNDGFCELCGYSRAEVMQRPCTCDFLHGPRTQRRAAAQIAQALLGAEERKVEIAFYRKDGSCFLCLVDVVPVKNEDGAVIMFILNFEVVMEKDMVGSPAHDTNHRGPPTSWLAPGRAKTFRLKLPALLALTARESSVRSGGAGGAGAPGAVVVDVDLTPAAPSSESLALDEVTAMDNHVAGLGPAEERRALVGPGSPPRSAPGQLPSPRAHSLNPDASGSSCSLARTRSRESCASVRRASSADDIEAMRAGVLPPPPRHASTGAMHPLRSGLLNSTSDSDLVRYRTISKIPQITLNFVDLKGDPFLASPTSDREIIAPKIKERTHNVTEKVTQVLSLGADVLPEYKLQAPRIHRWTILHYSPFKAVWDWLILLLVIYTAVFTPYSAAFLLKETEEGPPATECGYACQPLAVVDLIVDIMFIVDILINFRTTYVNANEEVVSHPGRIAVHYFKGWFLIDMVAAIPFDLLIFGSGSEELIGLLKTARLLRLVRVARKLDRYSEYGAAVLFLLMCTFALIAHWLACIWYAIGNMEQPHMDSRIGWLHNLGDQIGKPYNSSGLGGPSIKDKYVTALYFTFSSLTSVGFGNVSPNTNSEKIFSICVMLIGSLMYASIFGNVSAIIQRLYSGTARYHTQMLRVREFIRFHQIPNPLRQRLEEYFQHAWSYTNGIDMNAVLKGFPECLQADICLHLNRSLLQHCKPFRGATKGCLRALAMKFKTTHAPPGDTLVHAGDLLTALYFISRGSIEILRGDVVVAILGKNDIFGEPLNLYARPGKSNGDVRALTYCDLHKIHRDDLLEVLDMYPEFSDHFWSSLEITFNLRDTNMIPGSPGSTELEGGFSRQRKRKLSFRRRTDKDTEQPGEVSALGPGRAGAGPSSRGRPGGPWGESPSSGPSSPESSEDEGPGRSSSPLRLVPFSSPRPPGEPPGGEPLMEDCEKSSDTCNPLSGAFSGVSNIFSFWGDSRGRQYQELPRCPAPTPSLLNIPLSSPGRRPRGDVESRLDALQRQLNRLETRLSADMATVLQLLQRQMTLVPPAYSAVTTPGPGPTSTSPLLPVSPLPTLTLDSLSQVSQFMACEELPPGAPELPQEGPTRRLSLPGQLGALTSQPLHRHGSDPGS

SMILES | hERG current change (%, negative = inhibition) at 1uM
CC(C)OCCCNC(=O)Cn1ccc2cc(S(=O)(=O)N3CCCCC3)ccc21 | 11.6%
O=C(CCc1nnc2ccc(N3CCC4(CC3)OCCO4)nn12)NCc1ccccc1Cl | 18.4%
CCn1cc(CNC(=O)NC2CCCCC2)c(C)n1 | 15.7%
Cc1ccc(S(=O)(=O)N(CC(=O)Nc2ccc(C(N)=O)cc2)C(=O)N2CCN(C)CC2)cc1 | -7.78%
CCN(CC)c1ccc(S(=O)(=O)N2CCCCC2)cc1NC(=O)C1CSC2(C)CCC(=O)N12 (stereo not shown) | 0.223%
CC1=C(C(=O)O)N2C(=O)C(NC(=O)c3ccccc3Cl)C2SC1 (stereo not shown) | 8.78%
CCC(=O)NC(=S)Nc1cccc(C(C)=O)c1 | 5.61%
COc1cccc2sc3ccc(C#CC4(N)CCCCC4)cc3c(=O)c12 | 16.7%
N#CC12C(N)=NC3(OCCO3)C1(C#N)C1=C(CCC1)NC2c1ccccc1 (stereo not shown) | 12.2%
CCCOC(=O)c1[nH]c2c(c1C)C(=O)CC(c1cccs1)C2 (stereo not shown) | 7.52%
CN1CCS/C1=C/C=C1\SC(=S)N(CC(=O)O)C1=O | 6.31%
CCSc1nc(C(F)(F)F)cc(=O)n1-c1ccccc1 | -4.15%
CCN1C(=O)/C(=C/C=C2\N(CC)c3cc(S(=O)(=O)N(C)C)ccc3N2c2ccccc2)SC1=S | 2.96%
CC(C)NS(=O)(=O)c1ccc(OCC(=O)N2CCN(Cc3ccc4c(c3)OCO4)CC2)c(Cl)c1 | -3.32%
Cn1c(NCCc2ccccc2)cc(=O)n(C)c1=O | 11.8%
C/C(=N\NC(=S)Nc1c(C)cccc1C)c1cc2ccccc2o1 | 17.5%
O=C(CCCCCCCCCCC(=O)NCc1cccnc1)NCc1cccnc1 | 4.01%
COc1cccc(NC(=O)CSc2nnc3c(n2)[nH]c2ccc(C)cc23)c1 | 13.9%
COc1cc(/C=C/C(=O)c2ccc(C)cc2)ccc1OCC#N | 3.81%
COc1ccc(NC(=O)Cn2c(-c3ccccc3)cn(-c3ccc(C)cc3)c2=O)cc1 | 11%
COc1cc(OC)c(OC)cc1CN1CCN(Cc2cccn2C)CC1.O=C(O)C(=O)O | 7.26%
Cc1sc2ncn(-n3c(C)ccc3C)c(=O)c2c1C | 11.5%

SMILES | hERG current change (%, negative = inhibition) at 1uM
O=C(N/N=C/c1ccc2c(c1)OCO2)C(=O)Nc1cccc(Cl)c1 | 16.1%
COc1cccc(Sc2ccccc2/C=N/NC(N)=O)c1 | 13.8%
CCCCC(=O)Nc1ccc(S(=O)(=O)N2CCCCC2c2cccnc2)cc1 (stereo not shown) | -2.88%
CCOc1ccccc1NC(=O)Cn1nnc(C(=O)NCCc2ccc(OC)c(OC)c2)c1N | 10.3%
On1onc2c3cc(-c4ccccc4)nc3ccc21 | 3.3%
COc1ccc2cc3cc(C(=O)NCC4COc5ccccc5O4)oc3nc2c1 (stereo not shown) | 15.1%
O=C(Nc1nnc(SCc2ccc(Cl)cc2Cl)s1)C1COc2ccccc2O1 (stereo not shown) | 8.17%
CCC(C)OC(=O)C1=C(C)NC(=O)NC1c1ccc(F)cc1 (stereo not shown) | 7.72%
CCOC(=O)c1c(C)[nH]c(C(=O)OCC(=O)N2c3ccccc3CC2C)c1C (stereo not shown) | 9.65%
Cc1nc2cc3nc(C)sc3cc2s1 | 3.19%
O=C(NC1CCSc2ccccc21)c1cc([N+](=O)[O-])ccc1N1CCOCC1 (stereo not shown) | 2.08%
CCNc1ccc(C(=O)OCC(=O)NCc2ccc(C)cc2)cc1[N+](=O)[O-] | 19.2%
COc1ccc(S(=O)(=O)N2CCCC2)cc1C(=O)N1CCOCC1 | 7.3%
O=C(NCCC1CCCCN1S(=O)(=O)c1cccs1)C(=O)NCc1ccccc1 (stereo not shown) | 8.42%
C#Cc1ccc([C@H]2C=C(C(=O)NC3CC3)O[C@@H](OCC)[C@@H]2CCCO)cc1 | 10.2%
CN(Cc1ccccc1)C(=O)C(C(=O)c1ccc(F)cc1)n1cc(Cl)ccc1=O (stereo not shown) | 3.03%
CC(C)N(c1ccccc1)c1ccc(NC(=S)NCCN(C)C)cc1 | 11.7%
Cc1c(N/C=C(\Cl)C(=O)C(F)(F)F)c(=O)n(-c2ccccc2)n1C | 5.98%
O=C(NC(=S)Nc1ccc2c(c1)OCCO2)c1ccccc1F | 8.56%
COc1cccc2cc(C(C)=O)oc12 | 2.49%
CCn1c(N2CCN(S(=O)(=O)c3ccccc3C(F)(F)F)CC2)nc2ccccc21.Cl | 8.63%
O=C1CCCN1CCCNC(=S)Nc1ccc(Cl)cc1Cl | -0.0778%

SMILES | hERG current change (%, negative = inhibition) at 1uM
N=c1c(C(=O)NCCN2CCOCC2)cc2c(=O)n3ccccc3nc2n1Cc1ccc(F)cc1 | -19.2%
Cc1ccc(-n2nc(-c3ccco3)cc2C(=O)NCc2cccnc2)cc1 | -3.39%
CCC1OC2(C)OC(=N)C1(C#N)C(C#N)(C#N)C2c1ccccc1 (stereo not shown) | 9.48%
N/C(=N\OC(=O)c1cc(Br)ccc1Cl)c1ccccn1 | 11.5%
Cc1nn(-c2cc(C(F)(F)F)ccc2Cl)c2nc(C(F)(F)F)[nH]c(=O)c12 | 14.4%
NC(=O)c1c(N)sc2c1CCCCC2 | 12.3%
CC(C)C1Cc2c(C#N)c(N)n(C)c(=S)c2CO1 (stereo not shown) | 6.25%
NC(=O)C1CCN(CC(=O)Nc2ccccc2N2CCOCC2)CC1 | 4.12%
C=CCN(C)NC(=S)Nc1ccccc1 | 11.2%
COc1ccc(-n2c(O)c(C=NCc3ccccn3)c3ccccc3c2=O)c(OC)c1 | 13.5%
O=C(NCc1nnc2c(C(F)(F)F)cc(Cl)cn12)c1cccnc1 | 22.6%
Cc1ccc(CN2CCNC(=O)C2CC(=O)N(C)C2CCCCC2)o1 (stereo not shown) | 7.39%
O=C(NCc1ccc2c(c1)OCO2)Nc1ccc2nsnc2c1 | 13.1%
CCN(CC)C(=O)c1[nH]cnc1C(=O)Nc1ccccc1 | 15.8%
Cc1c(NC(=O)COC(=O)CSc2ccc(C(N)=O)cc2[N+](=O)[O-])c(=O)n(-c2ccccc2)n1C | 17.4%
CCN1C(=NCCc2cccnc2)N[C@@H](c2ccccc2)C(C(=O)OC)=C1C | -16.4%
COc1ccc(S(=O)(=O)NC2CC(=O)N(c3ccccc3)C2)cc1C (stereo not shown) | 3.33%
O=C(NCc1cccs1)C1CCC(CNS(=O)(=O)c2ccc(Br)s2)CC1 (stereo not shown) | -2.37%
O=C(NCc1ccc2c(c1)OCO2)C1CCCN1C(=O)Nc1ccc(F)cc1 (stereo not shown) | -7.59%
Cc1noc2ncnc(N3CCN(c4ccc(F)cc4)CC3)c12 | -8.95%
Clc1ccc(-c2nnc(C3CC3)o2)cc1 | 9.06%
CCn1c(Sc2ccc(N)cc2Cl)nc2ccccc21 | 12.3%

SMILES | hERG current change (%, negative = inhibition) at 1uM
CCOc1ccc(NC(=S)NN(C)C(=S)Nc2ccc(OCC)cc2)cc1 | 3.77%
CCOc1ccc(-n2c(C)nc3cc(C(=O)NCC4CCCO4)ccc32)cc1 (stereo not shown) | 7.88%
CCC(CC)NC(=O)CO/N=C/c1ccccc1OC(F)F | -4.9%
CCC(CC)NC(=O)Cc1ccc(S(=O)(=O)N2CCOCC2)s1 | 10.5%
Cc1c(O)ccc(C(=O)CN2CCN(c3ccccc3)CC2)c1O | 13.2%
Cc1[nH]c(=O)[nH]c(=O)c1CSCC(=O)OCC(=O)c1ccc(Br)cc1 | 10.2%
Cc1oc2c(c1C(=O)Nc1cccc3ccccc13)CCCC2 | 8.17%
O=C(Nc1ccccc1-c1ccccc1)NC1CCN(CC(=O)N2CCOCC2)CC1 | 9.68%
CC1=C(C(N)=O)C(c2cccnc2)n2nc(-c3cccc(C)c3)nc2N1 (stereo not shown) | 7.42%
O=c1c2ccccc2c(C=Nc2ccc(S(=O)(=O)N3CCCCC3)cc2)c(O)n1-c1ccc(Cl)cn1 | 16.1%
CCC[n+]1c(C)sc2c(OC)ccc(OC)c21.[I-] | 10.9%
CC(NC(=O)C12CC3CC(C)(CC(C)(C3)C1)C2)c1ccncc1 (stereo not shown) | 8.47%
CC(NC(=O)C1CCC(CNc2c(N3CCOCC3)c(=O)c2=O)CC1)c1ccccc1 (stereo not shown) | -2.95%
Cc1nnc(NC(=O)C2C3C=CC(O3)C2C(=O)O)s1 (stereo not shown) | -9.85%
O=C(c1ccc(C(F)(F)F)cc1)C1CCCN(C2CCSCC2)C1 (stereo not shown) | -64.4%
Cc1ccc(S(=O)(=O)N2CCCOC2CNC(=O)C(=O)NCc2cccs2)cc1 (stereo not shown) | 4.49%
CC(=O)OCCn1c2nc(=O)[nH]c(=O)c-2nc2cc(C)c(C)cc21 | 16.3%
Cc1ccc(-c2cc(C(=O)Nc3sc4c(c3C(=O)NCc3ccco3)CCC4)[nH]n2)c(O)c1 | 10%
CCc1nnc(NC(=O)CSc2nnc(-c3ccoc3C)n2-c2ccc(C)cc2)s1 | -1.78%
Cc1ccc(N2C(=O)CN(Cc3ccccc3)C2=S)cc1C | 13%
COc1ccc(NC(=O)CC23CC4CC(CC(Br)(C4)C2)C3)c(OC)c1 | 9.43%
Cc1ccc(C(=O)c2ccccc2C(=O)OCC(=O)NC(C)(C)C)cc1 | 1.05%
